According to PubChem BioAssay AID493208 (National Center for Advancing Translational Sciences (NCATS), 2011):
The whole screen tested about 44,000 compounds, of which about 340 (0.77%) were called active. About 5% were inconclusive and are not listed. Calls come from the whole dose curve; as a rule, active = well fitted inhibition curve with a large enough effect; inconclusive = small, poorly fitted or top-dose-only effect; inactive = flat fitted curve, though single readings scatter. The list shows a part of the results.

Experiment: Acumen qHTS Assay for Inhibitors of the mTORC1 Signaling Pathway in MEF (Tsc2-/-, p53-/-) Cells: Sytravon;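 note: plate controls were DMSO for no effect and rapamycin for full effect; nearly all actives have a fitted effect of over 50% in size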
Conditions: phospho-rpS6 immunofluorescence/PI, 24 h; series mostly up to 38.3 µM; activity change, negative = inhibition: at the top concentration
Procedure, shortened: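 Plate MEFs (Tsc2-/-, p53-/-, empty vector) in DMEM/10% FBS; after 24 h add compound, incubate 24 h at 37 degree Celsius; fix in PFA/TX-100, block, stain phospho-rpS6 and 10 uM PI; scan at 488 nm; report % positive cells.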

Activity change, negative = inhibition, inactive:
CSc1ccc(CCNC(=O)c2ccc3c(c2)nc2n3CCC(C)C2)cc1 (stereo not given) 8.09%
CCOCCc1nn2c(=O)cc(COC(=O)c3ccccc3NC(=O)c3cccs3)nc2s1 0%
COc1cc(OC)c(NC(=O)CSc2nccn2C)cc1Cl 7.36%
COc1ccc2oc(-c3ccc(C)c(NC(=O)c4cccnc4)c3)nc2c1 -0.225%
Cc1ccc(CNC(=O)c2ccc(-n3c(C)cc4c3CCCC4)cc2)cc1 -14.5%
CC1CCN(c2oc(-c3cccs3)nc2S(=O)(=O)c2ccc(Cl)cc2)CC1 0.543%
Cc1ccc(OCC(=O)Nc2ccc3nc(SCC(=O)N4CCCC4)sc3c2)cc1 -12.2%
O=C(CSc1nc2cc(C(=O)NC3CCCC3)ccc2c(=O)n1CC1CCCO1)c1ccc(F)cc1 (stereo not given) -16.7%
CNC(=O)c1ccc2c(c1)N=C(C)c1cc(C)ccc1S2 -27.1%
Cc1ccc(C)c(S(=O)(=O)c2cn(Cc3ccccc3)c3cc(F)c(F)cc3c2=O)c1 -9.25%
CCOC(=O)c1c(SCC(=O)Nc2nc3ccc(C)cc3s2)nc(=O)[nH]c1C -2.17%
Cc1cccc(CSc2cn(CC(=O)N3CCCCC3)c3ccccc23)c1 -17.8%
Cc1cc(C)c2sc(N(Cc3cccnc3)C(=O)CCS(=O)(=O)c3ccccc3)nc2c1 -9.75%
CC(C)(C)C1CCc2oc3ccc(NS(=O)(=O)c4cc(Cl)ccc4Cl)cc3c2C1 (stereo not given) -12.3%
O=C(Cn1cc(SCc2cccc(F)c2)c2ccccc21)N1CCOCC1 0.0604%
O=C(c1cc(-c2ccc(Br)cc2)n[nH]1)N1CCN(S(=O)(=O)c2ccc(Br)cc2)CC1 -0.436%
CCC(=O)N1N=C(c2ccc(OC)cc2)CC1c1cn(-c2ccccc2)nc1-c1cccs1 (stereo not given) 5.42%
CCOc1ccc(N(c2nc(-c3ccc(OC)c(OC)c3)no2)c2nc(-c3ccc(OC)c(OC)c3)no2)cc1 -0.957%
CC(=O)N1c2ccc(S(=O)(=O)N3CCN(c4ccc(C)cc4C)CC3)cc2CC1C (stereo not given) -18.6%
O=C(Cn1ccn(-c2ccc(F)cc2)c(=O)c1=O)NCCc1ccccc1 1.91%
COc1ccccc1N(CC(=O)NCCSCc1ccccc1Cl)S(C)(=O)=O 0.416%
COC(=O)CSc1nc2c(cnn2-c2ccc(F)cc2)c(=O)[nH]1 0.26%
CCOc1ccccc1NC(=O)C(CC(C)C)NS(=O)(=O)c1ccc2c(c1)CCN2C(C)=O (stereo not given) -4.17%
Cc1oc(-c2cccc(Br)c2)nc1CN1CCC(C(=O)NCCc2ccc(Cl)cc2)CC1 -1.36%
CCc1ccccc1NC(=O)Cn1ncc2c(C)n(Cc3ccccc3F)c(C)c2c1=O -6.67%
CC(C)CNC(=O)CCSc1nc(-c2ccc3c(c2)OCO3)cc(C(F)(F)F)n1 -4.83%
O=C(Cn1c(=O)n(Cc2nc(-c3ccccc3)no2)c(=O)c2cc3c(cc21)OCO3)Nc1ccc(Cl)cc1 -8.61%
Cc1ccc(C)c(N2CCN(c3ccc(NC(=O)c4cccs4)cc3C(=O)O)CC2)c1 1.3%
CCOc1ccc(-n2c(=O)c3c(C)c(C)sc3n(CC(=O)c3ccccc3)c2=O)cc1 -16.9%
CCN(CC)CCCNC(=O)c1c(C)oc2ncn(CC(C)C)c(=O)c12 1.07%
Cn1c(=O)n(C)c2cc(NS(=O)(=O)c3ccc(Br)cc3)c(NCc3ccccc3)cc21 0.632%
CCc1ccc(-n2nc(C)c3c(C)cc(=O)n(CC(=O)Nc4ccc(C)c(F)c4)c32)cc1 -6.87%
CCCCN(C)S(=O)(=O)c1cc(-c2nnc3c4ccccc4c(C)nn23)ccc1C 1.12%
COc1cc(Br)c(C2CC(=O)Nc3cc(OC)c(OC)c(OC)c32)cc1OC (stereo not given) 10.4%
CC1CCc2c(sc(NC(=O)CCCOc3ccc(C(C)(C)C)cc3)c2C(N)=O)C1 (stereo not given) 16.5%
Nc1c(-c2nc(-c3ccc(Cl)cc3)cs2)c2ccccn2c1C(=O)c1ccc2c(c1)OCO2 -3.36%
Cc1c(C)n(Cc2ccc(Cl)cc2)c2ccc(C(=O)NCCc3ccc(S(N)(=O)=O)cc3)cc12 -2.68%
COCCCNC(=O)c1cc2c(=O)n3cccc(C)c3nc2s1 -12.3%
O=S(=O)(Nc1cccc(-c2ccc(N3CCCCC3)nn2)c1)c1cccc(F)c1 -3.18%
CCCCc1nc2ccccc2n2c(-c3ccc(C)cc3)c3c(=O)n(C)c(=O)n(C)c3c12 0.306%
COc1ccc(C2C(=O)N(C3CCC(C)CC3)CC(=O)N2CCc2ccccc2)cc1OC (stereo not given) 8.7%
CSc1cccc(NC(=O)CN(c2ccccc2)S(=O)(=O)N(C)C)c1 -2.47%
CC1CCN(S(=O)(=O)c2ccc3c(c2)N(CC(=O)NC(C)c2ccccc2)C(=O)CO3)CC1 (stereo not given) -7.64%
Cc1cc(N2CCCCC2)nc2ccc(NC(=O)c3cccc(F)c3)cc12 -15.6%
CCCc1nnc(NC(=O)Cc2coc3cc(C)cc(C)c23)s1 1.13%
Cc1ccc(C(=O)N2CCc3cc(CNC(=O)COc4ccccc4)ccc32)cc1 -17.2%
CCOc1ccc(Nc2nc3ccccc3n3c(CC)nnc23)cc1 -16.6%
CCCN1CCN(CCCNC(=O)c2cnn(-c3ccc(F)cc3)c2-n2cccc2)CC1 0.438%
O=S(=O)(c1cccc(C(F)(F)F)c1)n1c(/C=C/c2ccccc2)nc2ccccc21 -0.93%
O=C(Cn1c(=O)n(-c2ccccc2)c(=O)c2sc3ccccc3c21)N1CCCC1 7.77%
CC(C)c1ccc(NC(=O)CN2C(=O)COc3ccc(S(=O)(=O)Nc4ccccc4)cc32)cc1 -8.66%
O=[N+]([O-])c1cc(-c2nc(-c3cccnc3)no2)ccc1NCc1ccccc1 1.35%
O=C(Nc1ccc(Br)cc1)C1CCN(S(=O)(=O)c2cccc3nsnc23)CC1 0.553%
CC(C)OCCCNC(=O)CCCn1c(SCC(=O)c2ccc(F)cc2)nc2c(sc3ccccc32)c1=O -4.34%
Cc1ccc2oc(=O)c3cnn(CC(=O)Nc4cccc(C(F)(F)F)c4)c3c2c1 -1.58%
O=C(NCC(c1ccco1)S(=O)(=O)c1ccc(Cl)cc1)c1ccccc1F (stereo not given) -2.94%
COc1ccc(CCNC(=O)c2nnc(Cc3ccc(Cl)cc3)o2)cc1OC -26.8%
COc1ccc(-c2nn3c(=O)cc(CN4CCN(C(=O)Nc5ccc(C)c(Cl)c5)CC4)nc3s2)cc1 -5.7%
CCOC(=O)c1sc(NC(=O)c2cc(CC)on2)c(C(=O)OCC)c1C 3.48%
Cc1ccc(NS(=O)(=O)c2ccc3[nH]c4c(c3c2)CCCCCC4)cc1Cl -18.4%
